# The supplement of paper PMC8728848
# This is one part of the list.
# B1: MpAFP NterminalRI GFP (Marinomonas primoryensis) (protein)
# chain: MSDNQFPFATLGNAIGFITKLDGSVTVQSIDGQERVLKLGDPIFFGETVLTGGSGSVTIAFVDGTDVVIGGDSIVEMTDEIYNTGDNEDLVADSSSEIDALQNAILAGDDPTLIQDAPAAGNTLADQQRVDVSIERNDNSAQAGFGVDTQSSLPTYGYDTDNGNGGQATEREYSAPSLSRTLNQSPLLEHHHHHH
# Columns and labels:
# Test in all cases: glycan array binding signal (z-score within array); higher = stronger binding
# Details in all cases: glycan notation: IUPAC condensed, linker removed
# Fuc(a1-2)Gal = molecular target: Fuc(a1-2)Gal
# Outline: (§1)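 The Consortium for Functional Glycomics database supplied 3228 glycan arrays, of which those lacking an available protein sequence were dropped. The binding signal, a within-array Z-score, was averaged across arrays of the same protein sequence and across linkers. Negative scores can be read as non-binding.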
# Fuc(a1-2)Gal(b1-3)GalNAc = molecular target: Fuc(a1-2)Gal(b1-3)GalNAc
# Outline: as §1
# [1] = molecular target: Fuc(a1-2)Gal(b1-3)GalNAc(a1-3)[Fuc(a1-2)]Gal(b1-4)Glc
# Outline: as §1
# [2] = molecular target: Fuc(a1-2)Gal(b1-3)GalNAc(a1-3)[Fuc(a1-2)]Gal(b1-4)GlcNAc
# Outline: as §1
# [3] = molecular target: Fuc(a1-2)Gal(b1-3)GalNAc(b1-3)Gal
# Outline: as §1
# [4] = molecular target: Fuc(a1-2)Gal(b1-3)GalNAc(b1-3)Gal(a1-4)Gal(b1-4)Glc
# Outline: as §1
# [5] = molecular target: Fuc(a1-2)Gal(b1-3)GalNAc(b1-4)[Neu5Ac(a2-3)]Gal(b1-4)Glc
# Outline: as §1
# Fuc(a1-2)Gal(b1-3)GlcNAc = molecular target: Fuc(a1-2)Gal(b1-3)GlcNAc
# Outline: as §1
# [6] = molecular target: Fuc(a1-2)Gal(b1-3)GlcNAc(b1-2)Man(a1-3)[Fuc(a1-2)Gal(b1-3)GlcNAc(b1-2)Man(a1-6)]Man(b1-4)GlcNAc(b1-4)GlcNAc
# Outline: as §1
# [7] = molecular target: Fuc(a1-2)Gal(b1-3)GlcNAc(b1-2)Man(a1-3)[Fuc(a1-2)Gal(b1-3)GlcNAc(b1-2)Man(a1-6)]Man(b1-4)GlcNAc(b1-4)[Fuc(a1-6)]GlcNAc
# Outline: as §1
# [8] = molecular target: Fuc(a1-2)Gal(b1-3)GlcNAc(b1-3)Gal(b1-4)Glc
# Outline: as §1
# [9] = molecular target: Fuc(a1-2)Gal(b1-3)GlcNAc(b1-3)GalNAc
# Outline: as §1
# [10] = molecular target: Fuc(a1-2)Gal(b1-3)GlcNAc(b1-3)[Fuc(a1-2)Gal(b1-3)GlcNAc(b1-6)]GalNAc
# Outline: as §1
# [11] = molecular target: Fuc(a1-2)Gal(b1-3)GlcNAc(b1-3)[Gal(b1-4)GlcNAc(b1-6)]Gal(b1-4)Glc
# Outline: as §1
# [12] = molecular target: Fuc(a1-2)Gal(b1-3)GlcNAc(b1-3)[Neu5Ac(a2-6)Gal(b1-4)GlcNAc(b1-6)]Gal(b1-4)Glc
# Outline: as §1
# [13] = molecular target: Fuc(a1-2)Gal(b1-3)GlcNAc6S
# Outline: as §1
# [14] = molecular target: Fuc(a1-2)Gal(b1-3)[Fuc(a1-4)]GlcNAc
# Outline: as §1
# [15] = molecular target: Fuc(a1-2)Gal(b1-3)[Fuc(a1-4)]GlcNAc(b1-2)Man(a1-3)[Fuc(a1-2)Gal(b1-3)[Fuc(a1-4)]GlcNAc(b1-2)Man(a1-3)]Man(b1-4)GlcNAc(b1-4)GlcNAc
# Outline: as §1
# [16] = molecular target: Fuc(a1-2)Gal(b1-3)[Fuc(a1-4)]GlcNAc(b1-2)Man(a1-3)[Fuc(a1-2)Gal(b1-3)[Fuc(a1-4)]GlcNAc(b1-2)Man(a1-6)]Man(b1-4)GlcNAc(b1-4)[Fuc(a1-6)]GlcNAc(b1-4)[Fuc(a1-6)]GlcNAc
# Outline: as §1
# [17] = molecular target: Fuc(a1-2)Gal(b1-3)[Fuc(a1-4)]GlcNAc(b1-3)[Fuc(a1-3)[Gal(b1-4)]GlcNAc(b1-6)]Gal(b1-4)Glc
# Outline: as §1
# [18] = molecular target: Fuc(a1-2)Gal(b1-3)[Fuc(a1-4)]GlcNAc(b1-3)[Gal(b1-4)GlcNAc(b1-6)]Gal(b1-4)Glc
# Outline: as §1
# [19] = molecular target: Fuc(a1-2)Gal(b1-4)Fuc(a1-3)]GlcNAc(b1-2)Man(a1-3)[Fuc(a1-2)Gal(b1-4)[Fuc(a1-3)]GlcNAc(b1-2)Man(a1-6)]Man(b1-4)GlcNAc(b1-4)GlcNAc
# Outline: as §1
# Fuc(a1-2)Gal(b1-4)Glc = molecular target: Fuc(a1-2)Gal(b1-4)Glc
# Outline: as §1
# Fuc(a1-2)Gal(b1-4)Glc6S = molecular target: Fuc(a1-2)Gal(b1-4)Glc6S
# Outline: as §1
# Fuc(a1-2)Gal(b1-4)GlcNAc = molecular target: Fuc(a1-2)Gal(b1-4)GlcNAc
# Outline: as §1
# [20] = molecular target: Fuc(a1-2)Gal(b1-4)GlcNAc(b1-2)Man
# Outline: as §1
# [21] = molecular target: Fuc(a1-2)Gal(b1-4)GlcNAc(b1-2)Man(a1-3)[Fuc(a1-2)Gal(b1-4)GlcNAc(b1-2)Man(a1-6)]Man(b1-4)GlcNAc(b1-4)GlcNAc
# Outline: as §1
# [22] = molecular target: Fuc(a1-2)Gal(b1-4)GlcNAc(b1-2)Man(a1-3)[Fuc(a1-2)Gal(b1-4)GlcNAc(b1-2)Man(a1-6)]Man(b1-4)GlcNAc(b1-4)[Fuc(a1-6)]GlcNAc
# Outline: as §1
# [23] = molecular target: Fuc(a1-2)Gal(b1-4)GlcNAc(b1-2)[Fuc(a1-2)Gal(b1-4)GlcNAc(b1-4)]Man(a1-3)[Fuc(a1-2)Gal(b1-4)GlcNAc(b1-2)Man(a1-6)]Man(b1-4)GlcNAc(b1-4)GlcNAc
# Outline: as §1
# [24] = molecular target: Fuc(a1-2)Gal(b1-4)GlcNAc(b1-3)Gal(b1-4)GlcNAc
# Outline: as §1
binder,measurement,setting,value
B1,glycan array binding signal (z-score),Fuc(a1-2)Gal,-0.557
same,glycan array binding signal (z-score),Fuc(a1-2)Gal(b1-3)GalNAc,-0.358
same,glycan array binding signal (z-score),[1],-0.483
same,glycan array binding signal (z-score),[2],-0.525
same,glycan array binding signal (z-score),[3],-0.298
same,glycan array binding signal (z-score),[4],-0.225
same,glycan array binding signal (z-score),[5],-0.577
same,glycan array binding signal (z-score),Fuc(a1-2)Gal(b1-3)GlcNAc,-0.496
same,glycan array binding signal (z-score),[6],0.818
same,glycan array binding signal (z-score),[7],0.078
same,glycan array binding signal (z-score),[8],-0.471
same,glycan array binding signal (z-score),[9],-0.276
same,glycan array binding signal (z-score),[10],0.079
same,glycan array binding signal (z-score),[11],-0.221
same,glycan array binding signal (z-score),[12],-0.238
same,glycan array binding signal (z-score),[13],-0.105
same,glycan array binding signal (z-score),[14],-0.16
same,glycan array binding signal (z-score),[15],0.694
same,glycan array binding signal (z-score),[16],0.468
same,glycan array binding signal (z-score),[17],-0.263
same,glycan array binding signal (z-score),[18],-0.228
same,glycan array binding signal (z-score),[19],1.78
same,glycan array binding signal (z-score),Fuc(a1-2)Gal(b1-4)Glc,-0.478
same,glycan array binding signal (z-score),Fuc(a1-2)Gal(b1-4)Glc6S,1.7
same,glycan array binding signal (z-score),Fuc(a1-2)Gal(b1-4)GlcNAc,-0.249
same,glycan array binding signal (z-score),[20],0.01
same,glycan array binding signal (z-score),[21],-0.219
same,glycan array binding signal (z-score),[22],0.587
same,glycan array binding signal (z-score),[23],0.081
same,glycan array binding signal (z-score),[24],-0.457
